24 compounds from publication PMC4336329 (PLoS ONE, 2015) can be followed below.

Screen size: about 310,000 compounds; about 14,000 (4.5%) showed an effect of 50% or more. The effect is printed as a negative number. This is one part of the list.
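Also: peak tail current of the secondary pulse compared with the same well before compound.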

Chain of human ether-à-go-go-related gene (hERG) potassium channel (Q12809 whole entry, looked up): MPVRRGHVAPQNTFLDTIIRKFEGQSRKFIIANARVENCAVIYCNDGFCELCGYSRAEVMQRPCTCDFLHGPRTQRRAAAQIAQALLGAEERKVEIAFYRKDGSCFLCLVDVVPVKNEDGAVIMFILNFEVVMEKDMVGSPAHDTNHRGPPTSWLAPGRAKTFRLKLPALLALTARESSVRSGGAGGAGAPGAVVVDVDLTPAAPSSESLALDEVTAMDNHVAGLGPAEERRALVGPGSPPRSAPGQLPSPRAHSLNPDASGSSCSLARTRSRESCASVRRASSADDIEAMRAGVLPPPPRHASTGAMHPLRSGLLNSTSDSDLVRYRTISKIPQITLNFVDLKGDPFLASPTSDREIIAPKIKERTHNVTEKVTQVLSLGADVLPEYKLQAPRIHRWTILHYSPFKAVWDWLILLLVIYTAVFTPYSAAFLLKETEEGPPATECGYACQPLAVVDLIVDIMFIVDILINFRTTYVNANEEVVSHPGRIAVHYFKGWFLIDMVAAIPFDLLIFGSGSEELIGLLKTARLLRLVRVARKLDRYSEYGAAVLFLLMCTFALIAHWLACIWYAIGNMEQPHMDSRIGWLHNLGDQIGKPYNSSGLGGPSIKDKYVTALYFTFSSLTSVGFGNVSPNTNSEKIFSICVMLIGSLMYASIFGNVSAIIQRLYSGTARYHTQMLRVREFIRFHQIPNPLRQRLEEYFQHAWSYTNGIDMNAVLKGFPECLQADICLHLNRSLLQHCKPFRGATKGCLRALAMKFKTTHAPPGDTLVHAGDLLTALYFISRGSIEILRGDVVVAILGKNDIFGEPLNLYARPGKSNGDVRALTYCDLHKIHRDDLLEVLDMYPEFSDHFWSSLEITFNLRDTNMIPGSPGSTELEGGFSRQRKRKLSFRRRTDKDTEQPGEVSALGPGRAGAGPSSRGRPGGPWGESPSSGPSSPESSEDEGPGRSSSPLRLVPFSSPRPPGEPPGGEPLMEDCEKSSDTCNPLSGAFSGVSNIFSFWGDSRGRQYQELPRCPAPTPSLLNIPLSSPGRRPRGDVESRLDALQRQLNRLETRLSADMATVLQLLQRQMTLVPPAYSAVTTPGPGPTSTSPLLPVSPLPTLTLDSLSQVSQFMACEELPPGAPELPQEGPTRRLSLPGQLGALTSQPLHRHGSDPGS

The experiment addresses human ether-à-go-go-related gene (hERG) potassium channel (human, UniProt Q12809). Description: primary screen, population patch clamp on CHO cells stably expressing hERG.
Take `Cc1ccc(C)n1-c1nnc(N2CCC(C(=O)NCCCN3CCN(C)CC3)CC2)s1`: the “hERG current change (%, negative = inhibition) at 10uM” value is reported as -0.772%.

Consider `COc1ccc(/C=N/OCC(=O)N2CC3(C)CC2CC(C)(C)C3)cc1OC` (stereo not drawn), for which the “hERG current change (%, negative = inhibition) at 10uM” value is recorded as -3.72%.

As for `CC(C)/C=C1\CCc2c([nH]c3ccccc23)C1=O`, the “hERG current change (%, negative = inhibition) at 10uM” value is reported as 9.91%.

For `COc1ccc(-n2cnnc2SCc2ncc(-c3ccccc3)o2)cc1`, the “hERG current change (%, negative = inhibition) at 10uM” value is -49.3%.

As for `CCOP(=O)(OCC)C(CC)N1CCOCC1` (stereo not drawn), the “hERG current change (%, negative = inhibition) at 10uM” value stood at 7.31%.

Consider `COCCCn1c(SCC(=O)Nc2oc(C)c3c(C)n[nH]c(=O)c23)nc2sc3c(c2c1=O)CCC3`, for which the “hERG current change (%, negative = inhibition) at 10uM” value is -49.7%.

Turning to `O=C(NNc1ccc([N+](=O)[O-])cc1)C1CC2CCCC(C1)C2=O` (stereo not drawn), the “hERG current change (%, negative = inhibition) at 10uM” value is reported as -11.3%.

As for `Cc1[nH]n(-c2ccccc2)c(=O)c1N=Nc1ccccc1C(=O)N1CCOCC1`, the “hERG current change (%, negative = inhibition) at 10uM” value is given as -32.6%.

Take `CC(C)C(=O)Nc1cccc(-c2nc3ncccc3o2)c1`: the “hERG current change (%, negative = inhibition) at 10uM” value came out at 12.8%.

Consider `COc1ccc(C2=NN(C(N)=S)C(c3ccco3)C2)cc1` (stereo not drawn), for which the “hERG current change (%, negative = inhibition) at 10uM” value came to 0.346%.

In the case of `CCOC(=O)c1ccc(NC(=O)C2CCN(S(=O)(=O)c3ccccc3)CC2)cc1`, the “hERG current change (%, negative = inhibition) at 10uM” value was -20.9%.

On to `O=C(COC(=O)C1CC2C=CC1C2)Nc1cccc(S(=O)(=O)N2CCCCC2)c1` (stereo not drawn), for which the “hERG current change (%, negative = inhibition) at 10uM” value is -47.8%.

For the compound `Cc1cc(C)cc(-n2c(C)cc(/C=C3\C(=O)NC(=O)N(C)C3=O)c2C)c1`, the “hERG current change (%, negative = inhibition) at 10uM” value is reported as -5.02%.

With `Cc1cccc(C(=O)N2CCCC(N3CCN(c4ccc(F)cc4)CC3)C2)n1` (stereo not drawn), the “hERG current change (%, negative = inhibition) at 10uM” value was -48.4%.

Consider `O=C(Nc1ccc(O)c(-c2nc3ccccc3o2)c1)C1(c2ccccc2)CCCC1`, for which the “hERG current change (%, negative = inhibition) at 10uM” value is given as 19.5%.

On to `CN(C(=O)c1ccc2c(c1)CCN2S(C)(=O)=O)c1ccccc1`, for which the “hERG current change (%, negative = inhibition) at 10uM” value stood at 5.75%.

`CN(Cc1ccccc1)C(=O)c1nc2ccccn2c1CN1CCCC1c1nccs1` (stereo not drawn): the “hERG current change (%, negative = inhibition) at 10uM” value is recorded as -35%.

In the case of `O=C(COc1ccccc1Br)N1CCN(C(=O)c2ccco2)CC1`, the “hERG current change (%, negative = inhibition) at 10uM” value was -31.3%.

In the case of `CSc1nc(N2CCOCC2)cc(N2CCOCC2)n1`, the “hERG current change (%, negative = inhibition) at 10uM” value amounted to 7.09%.

Consider `CCSC1=NCCN1C(=O)Cc1ccc(-c2ccccc2)cc1`, for which the “hERG current change (%, negative = inhibition) at 10uM” value came to 6.93%.

On to `O=C(Cc1ccccc1)Nc1cccnc1`, for which the “hERG current change (%, negative = inhibition) at 10uM” value is on record as 2.86%.

With `COc1ccc2c(c1)c(C(O)CN1CCN(Cc3ccc4c(c3)OCO4)CC1)c(C)n2C` (stereo not drawn), the “hERG current change (%, negative = inhibition) at 10uM” value is -11%.

Consider `CCOc1ccc(C2C(C#N)=C(N)Oc3n[nH]c(C)c32)cc1OC(=O)C1CC1` (stereo not drawn), for which the “hERG current change (%, negative = inhibition) at 10uM” value is 13.2%.

`Br.C=CCN1C(c2cccc(C(F)(F)F)c2)=CS/C1=C(/C#N)c1nnc(N2CCOCC2)n1-c1ccccc1`: the “hERG current change (%, negative = inhibition) at 10uM” value is reported as -46.3%.
